Test results reported in the supplement of paper PMC11417369.
Some of the results follow.

Test system: PfHDP1 homeodomain (GST-tagged)
Test: gcPBM binding intensity (ln(normalized median fluorescence intensity)); higher = stronger DNA binding
Method in brief: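 GST-fused DNA-binding domains of P. falciparum, expressed in E. coli, were applied at about 25 μg on average for 1 h to an Agilent 4 × 180k array of primer-extended double-stranded 36-bp intergenic genomic probes and negative controls. Binding intensity is the highest Masliner-normalised natural-log median intensity across replicate spots of either probe orientation, measured with Alexa488 anti-GST antibody and a 488 nm scan.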

| Sequence | gcPBM binding intensity (ln) |
| --- | --- |
| AATAAATTATTATGTACACACATAATAGTATATATA [CACACA_site1820] | 6.23 |
| TATATATTAATATACACACACACATATATATATATA [CACACA_site1608] | 9.07 |
| AAAACATACCTATATACACACATATAAATATAAATA [CACACA_site6956] | 6.69 |
| ATTTAAGATTTAATCACACACATATATATTATATAC [CACACA_site2907] | 6.55 |
| ATAATATATGTATATCCACACACATATATATATATA [CACACA_site8471] | 9.19 |
| GCAAATGTGAAAACGTGTACACATTTTATTTAATTT [XGTACX_site8000] | 6.35 |
| TATTTGTAAATCGATACACACATATATATTAATATA [CACACA_site196] | 6.63 |
| AAATGTAGATATTATCGTACACATATATTTATATAT [XGTACX_site6326] | 6.54 |
| AACATGTTAAAATAAACACACAGCTAAGGTTTTTTT [CACACA_site157] | 6.31 |
| AAAAAAAAAAAAAAATGTACAAATAGTAGTTACAGA [XGTACX_site2531] | 6.34 |
| ATGTTTTACAAAAACACACAAATGAATATAAACATA [CACACA_site6667] | 6.66 |
| TTTATTATATATAAAAGTACACATTGTAAGGAAACA [XGTACX_site8560] | 6.93 |
| AAATATATATGTATATGTACTTATTTATTTAAAAGG [XGTACX_site4093] | 6.22 |
| TTTTCTGTATAAACTTGTACATATATTTCCTTGTTT [XGTACX_site5745] | 6.54 |
| AAAAGTGATGAGACAAGTACTAACATATTATTATTA [XGTACX_site1533] | 6.3 |
| ATATGTTCTACAAAAAAGATGTCGATTTATTTTCTT [CACACA_negctrl_site1179] | 6.35 |
| AAATAAAATATCAATTAAAACAGAATTGAATTTTTA [CACACA_negctrl_site181] | 6.18 |
| TAAAAAATAAATATATGTACGCAATAAATGTGTTAA [XGTACX_site4043] | 6.13 |
| ACACATATGCATATATGTACATAATATATTAAACTT [XGTACX_site5975] | 6.76 |
| AAAAAAAAAAGACACACACACACACTAATACATACA [CACACA_site6473] | 6.89 |
| ATAATTAACAAATACACACACACACCCCCACAAAAA [CACACA_site518] | 9.01 |
| AAATTAAAATATAATACACACATAAAAAAAAAAAAA [CACACA_site4183] | 6.43 |
| TATATATTTTTTTTTTGTACTCACAATATATGTATG [XGTACX_site8024] | 6.79 |
| AGTATTCATAAAAATACACACATGGAAAAATAAACT [CACACA_site6796] | 7.03 |
